Data from the supplement of paper PMC8728848.
The list shows a part of the results.

Assays:
Test in all cases: glycan array binding signal (z-score within array); higher = stronger binding
Details in all cases: glycan notation: IUPAC condensed, linker removed; mutation: E227A
[1] = target: GlcNAc(b1-3)Gal(b1-4)GlcNAc(b1-3)Gal(b1-4)GlcNAc(b1-3)Gal(b1-4)GlcNAc(b1-3)Gal(b1-4)GlcNAc(b1-2)[GlcNAc(b1-3)Gal(b1-4)GlcNAc(b1-3)Gal(b1-4)GlcNAc(b1-3)Gal(b1-4)GlcNAc(b1-3)Gal(b1-4)GlcNAc(b1-6)]Man(a1-6)[GlcNAc(b1-3)Gal(b1-4)GlcNAc(b1-3)Gal(b1-4)GlcNAc(b1-3)Gal(b1-4)GlcNAc(b1-3)Gal(b1-4)GlcNAc(b1-2)Man(a1-3)]Man(b1-4)GlcNAc(b1-4)[Fuc(a1-6)]GlcNAc
Method in brief: (§1)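 Glycan array binding is given as a within-array Z-score, which can be read as non-binding when negative. The arrays, 3228 of them, came from the Consortium for Functional Glycomics database and were retained only where the protein sequence was available. Z-scores were averaged across arrays of the same protein sequence at different concentrations or buffers and across linkers.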

[2] = target: GlcNAc(b1-3)Gal(b1-4)GlcNAc(b1-3)Gal(b1-4)GlcNAc(b1-3)GalNAc
Method in brief: as §1

[3] = target: GlcNAc(b1-3)Gal(b1-4)GlcNAc(b1-3)GalNAc
Method in brief: as §1

[4] = target: GlcNAc(b1-3)Gal(b1-4)GlcNAc(b1-3)[GlcNAc(b1-3)Gal(b1-4)GlcNAc(b1-3)]GalNAc
Method in brief: as §1

[5] = target: GlcNAc(b1-3)Gal(b1-4)GlcNAc(b1-6)[Gal(b1-3)]GalNAc
Method in brief: as §1

[6] = target: GlcNAc(b1-3)Gal(b1-4)GlcNAc(b1-6)[GlcNAc(b1-3)Gal(b1-3)]GalNAc
Method in brief: as §1

[7] = target: GlcNAc(b1-3)Gal(b1-4)GlcNAc(b1-6)[GlcNAc(b1-3)]Gal(b1-4)GlcNAc
Method in brief: as §1

[8] = target: GlcNAc(b1-3)GalNAc
Method in brief: as §1

[9] = target: GlcNAc(b1-3)Man
Method in brief: as §1

[10] = target: GlcNAc(b1-3)[GlcNAc(b1-4)][GlcNAc(b1-6)]GlcNAc
Method in brief: as §1

[11] = target: GlcNAc(b1-3)[GlcNAc(b1-6)]Gal(b1-4)GlcNAc
Method in brief: as §1

[12] = target: GlcNAc(b1-3)[GlcNAc(b1-6)]GalNAc
Method in brief: as §1

[13] = target: GlcNAc(b1-4)Gal(b1-4)GlcNAc
Method in brief: as §1

[14] = target: GlcNAc(b1-4)GlcNAc
Method in brief: as §1

[15] = target: GlcNAc(b1-4)GlcNAc(b1-4)GlcNAc
Method in brief: as §1

[16] = target: GlcNAc(b1-4)GlcNAc(b1-4)GlcNAc(b1-4)GlcNAc(b1-4)GlcNAc
Method in brief: as §1

[17] = target: GlcNAc(b1-4)GlcNAc(b1-4)GlcNAc(b1-4)GlcNAc(b1-4)GlcNAc(b1-4)GlcNAc
Method in brief: as §1

[18] = target: GlcNAc(b1-4)[GlcNAc(b1-6)]GalNAc
Method in brief: as §1

[19] = target: GlcNAc(b1-6)Gal(b1-4)GlcNAc
Method in brief: as §1

[20] = target: GlcNAc(b1-6)GalNAc
Method in brief: as §1

[21] = target: GlcNAc6S(b1-3)Gal(b1-4)GlcNAc
Method in brief: as §1

[22] = target: Kdn(a2-3)Gal(b1-3)GalNAc
Method in brief: as §1

[23] = target: Kdn(a2-3)Gal(b1-3)GlcNAc
Method in brief: as §1

[24] = target: Kdn(a2-3)Gal(b1-4)Glc
Method in brief: as §1

[25] = target: Kdn(a2-3)Gal(b1-4)GlcNAc
Method in brief: as §1

[26] = target: Kdn(a2-3)Gal(b1-4)[Fuc(a1-3)]GlcNAc
Method in brief: as §1

[27] = target: Kdn(a2-6)Gal(b1-4)GlcNAc
Method in brief: as §1

[28] = target: Man(a1-2)Man(a1-2)Man(a1-3)Man
Method in brief: as §1

[29] = target: Man(a1-2)Man(a1-2)Man(a1-6)[Man(a1-3)]Man
Method in brief: as §1

[30] = target: Man(a1-2)Man(a1-3)Man
Method in brief: as §1

B1: Epa1-NP-mutant-E227A (Candida glabrata), Q6VBJ0 (protein)
chain: MILNPALFLNKCVCIYTTLILLLLTNGGYATSSNDISLASKDPTTFPLGCSPDITTPKKGLSMELYSYDFRKKGSYPCWDAAYLDPNYPRTGYKSHRLLAKVDGVTGNINFYYHATKGCTPQLGHLPASYNYPKPLTMTNFTMLLYGYFRPKVTGFHTFTISADDLLFVNFGAGNAFDCCRRDSSADHFGNYQAYAIWGSKTAKDELTVHLDAGVYYPIRLFYNNRAYDGALSFTFKTESNENTVSDFSEYFFSLDDTEEGCPGLISYDSSCASVKTSKIIGIDYHTETPNENLVPITKTIYHLGIPCTGTTTTPLCGSGFYDPLANKCVTINTSSTSSVTKTTSHTTSKEVSFHSSISSQKTLIPKSIPSPYGPIKSQSIPTEMETSSEISSSEYAFSDVISTPSHSPYTKKHSSLNSSSYTSTVIHSLTSYSISQGIFSTSLSEQNITSKSSTDKFSTATSMSNNITQSSIIISQFSTNNENYTTTSMHTSSDKISTETLNNSISTTTSILFSNSSTILKNNTTIISSDKDTHYHPVNPTIVCSTNKTEIICASITQPSISNSNNHWSSSVLKFNSTTVRSTLPSSAGSNETSINVPFSSSTESNTSTSSTSTSNSKMVRSTLPSSAGSNETSISVPFSSSTESNTSTSSTSTSNSKMVRSTLPSSAGSNETSINVPFSSSTESNTSTSSTSTSNSKTVRSTPFSSAGIIMTSLSQRNNKSASSYASSNSKCYNTADSCRKVHSTPSYLLTSSYTSEGVDYDCSLVSTKLKINDTNCVNNKHTTKSCLKTSVTTTIPTLEIKTARKSSSNTIGLHSYPTSSPNKSISSAPIIGYISSFKTIKTASPSYQTSDLTTITTITSLNNPGSTAVENTHESNDKSRKTSSNDISSKHSVIKETKDAVESSNKSHQTNTLKCSSIIIASSSHNSYESLGGTTLTLTLSKVYSPQNNDTLPFLEISEVNPSRTVLPESSKMMQYLTSTEERNKTARNTIATNIVSISTFHFEGEGNAIRMGYTQLLLMLIGIIVMNIGT
For B1, the “glycan array binding signal (z-score)” value [1] was -0.169, the “glycan array binding signal (z-score)” value [2] was -0.189 and the “glycan array binding signal (z-score)” value [3] was -0.192. For the same binder, the “glycan array binding signal (z-score)” value [4] was -0.196, the “glycan array binding signal (z-score)” value [5] was 0.563 and the “glycan array binding signal (z-score)” value [6] was -0.207. For the same binder, the “glycan array binding signal (z-score)” value [7] was -0.208, the “glycan array binding signal (z-score)” value [8] was -0.214 and the “glycan array binding signal (z-score)” value [9] was -0.215. The “glycan array binding signal (z-score)” value [10] was -0.2, the “glycan array binding signal (z-score)” value [11] was -0.174 and the “glycan array binding signal (z-score)” value [12] was -0.223. The “glycan array binding signal (z-score)” value [13] was -0.178, the “glycan array binding signal (z-score)” value [14] was -0.196 and the “glycan array binding signal (z-score)” value [15] was -0.241. For the same binder, the “glycan array binding signal (z-score)” value [16] was -0.147, the “glycan array binding signal (z-score)” value [17] was -0.223 and the “glycan array binding signal (z-score)” value [18] was -0.193. The “glycan array binding signal (z-score)” value [19] was 0.346, the “glycan array binding signal (z-score)” value [20] was -0.209 and the “glycan array binding signal (z-score)” value [21] was 0.425. For the same binder, the “glycan array binding signal (z-score)” value [22] was -0.189, the “glycan array binding signal (z-score)” value [23] was -0.204 and the “glycan array binding signal (z-score)” value [24] was -0.171. For the same binder, the “glycan array binding signal (z-score)” value [25] was -0.131, the “glycan array binding signal (z-score)” value [26] was -0.188 and the “glycan array binding signal (z-score)” value [27] was -0.156. The “glycan array binding signal (z-score)” value [28] was -0.221, the “glycan array binding signal (z-score)” value [29] was -0.224 and the “glycan array binding signal (z-score)” value [30] was -0.203.
